# In PubChem BioAssay (NCATS):
# Several values for one entry are separate records, joined by “and”; a condition that tells them apart may be missing. Equal values may be shown once. Inconclusive results, whose numbers are uncertain, are shown with a selection of clear calls. Entries that show only a call come without a potency. A potency beside an inconclusive call is a rough fit, not a confirmed value. The source holds several records for some structures; these can differ, active in one and inactive in another. Activity calls are given as the source filed them. The call rests on the fitted dose curve; in most records, active means well fitted curve in the direction sought with a large enough effect; inconclusive means small, poorly fitted or top-dose-only effect, or another doubt; inactive means no such curve, though single readings can be large; an effect the other way counts as inactive or inconclusive.
# Target: Calcium and integrin-binding protein 1 (Homo sapiens) (UniProt Q99828)
# Chain of UniProt Q99828 (Q99828 whole entry, looked up): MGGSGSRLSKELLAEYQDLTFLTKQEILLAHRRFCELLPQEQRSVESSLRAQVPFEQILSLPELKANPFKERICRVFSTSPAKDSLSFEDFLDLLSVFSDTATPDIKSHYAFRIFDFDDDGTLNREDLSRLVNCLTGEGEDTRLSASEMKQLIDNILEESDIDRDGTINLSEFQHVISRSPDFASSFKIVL
# Experiment: Primary qHTS for Identification of Calcium Integrin Binding Protein 1 (CIB1) Competitor (AID 1508620)
# Conditions: CIB1-GST / FITC-alphaIIb peptide fluorescence polarization; series mostly up to 57.7 µM
# Summary of the method: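 Fluorescence polarization competition: CIB1-GST (1 uM final) preincubated with compound 15 min at room temperature, then FITC-labeled alphaIIb peptide (100 nM final) added for another 15 min. Polarization read at Ex 480/Em 540.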
# Potency means the concentration at half of the fitted maximal effect; tags describe the fitted curve by direction and shape.
row,Structure (SMILES),Potency
1,Nc1ccn(C2CO[C@H](CO)O2)c(=O)n1 (stereo partly drawn),"inconclusive: 39.8 µM [inhibitor, single point]"
2,COc1cc2ncnc(Nc3cc(Br)c(O)c(Br)c3)c2cc1OC,inactive
3,C[C@@H](NCc1cc2ccccc2[nH]1)c1cccc2ccccc12,"inconclusive: 21.5 µM [inhibitor, partial curve, poor fit]"
4,Cc1csc(-c2nnc(Nc3ccc(Oc4ncccc4-c4ccnc(N)n4)cc3)c3ccccc23)c1,inactive
5,C[C@@H]1CC(=O)NN=C1c1ccc(NN=C(C#N)C#N)cc1,inactive
6,CC1=NN(c2ccccc2)C(=O)C1,"inconclusive: 50.1 µM [inhibitor, partial curve]"
7,Nc1nc(=S)c2[nH]cnc2[nH]1,"inconclusive: 79.4 µM [inhibitor, single point]"
8,CC(C)c1ccccc1Cc1cc(C(=O)Nc2ccc(S(=O)(=O)c3ccccc3C(C)(C)C)cc2)c(O)c(O)c1O,"inconclusive: 15.2 µM [inhibitor, partial curve, poor fit]"
9,COc1cccc2nc(-c3cccs3)nc(NN3C(=O)C=C(C)C3=O)c12,"inconclusive: 3.04 µM [inhibitor, full curve, poor fit]"
10,COc1ccccc1-c1cccc(-c2c(O)c3cc(C#N)c(Cl)cc3[nH]c2=O)c1,"inconclusive: 62.2 µM [inhibitor, partial curve, poor fit]"
11,COCCCOc1ccnc(CS(=O)c2nc3ccccc3[nH]2)c1C (stereo not drawn),"active: 39.8 µM and inconclusive: 44.7 µM [inhibitor, partial curve, poor fit]"

# System: not listed separately
# Experiment: Primary qHTS for small molecule stabilizers of the endoplasmic reticulum resident proteome: Secreted ER Calcium Modulated Protein (SERCaMP) assay (AID 1508630)
# Conditions: SH-SY5Y GLuc-SERCaMP (Gaussia luciferase released on ER calcium loss) secretion, thapsigargin, luminescence; series mostly up to 38.4 µM
# Summary of the method: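 The SH-SY5Y reporter protocol was run at 3 concentrations up to 38.3 uM (primary) or 11 concentrations (follow-up): 16 h compound, 100 nM thapsigargin for 4 h, then extracellular luciferase luminescence.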
row,Structure (SMILES),Potency
1,Nc1ccn(C2CO[C@H](CO)O2)c(=O)n1 (stereo partly drawn),"inconclusive: 3.35 µM [inhibitor, full curve]"
2,O=C(NC1CCNCC1)c1[nH]ncc1NC(=O)c1c(Cl)cccc1Cl,"inconclusive: 0.0106 µM [inhibitor, full curve, poor fit]"
3,COc1cc(Nc2ncc3c(n2)-c2ccc(Cl)cc2C(c2c(F)cccc2OC)=NC3)ccc1C(=O)O,"inconclusive: 0.0084 µM [inhibitor, partial curve, poor fit]"
4,CCCS(=O)(=O)Nc1ccc(F)c(C(=O)c2c[nH]c3ncc(Cl)cc23)c1F,inactive
5,COc1cc2c(cc1OC)CN(CCc1ccc(NC(=O)c3cccc4c(=O)c5cccc(OC)c5[nH]c34)cc1)CC2,inactive
6,CNC(=O)c1cc(Oc2ccc(NC(=O)Nc3ccc(Cl)c(C(F)(F)F)c3)cc2)ccn1,"inconclusive: 15.8 µM [inhibitor, single point]"
7,COc1cc2c(cc1-c1c(C)noc1C)ncc1[nH]c(=O)n([C@H](C)c3ccccn3)c12,inactive
8,Cc1ccc(-c2cc(C(F)(F)F)nn2-c2ccc(S(N)(=O)=O)cc2)cc1,inactive
9,C[C@@H]1CC(=O)NN=C1c1ccc(NN=C(C#N)C#N)cc1,"inconclusive: 10 µM [inhibitor, partial curve, poor fit] and inconclusive: 31.6 µM [inhibitor, partial curve, poor fit] and inactive"
10,Cn1cc(-c2ccc3nnc(Sc4ccc5ncccc5c4)n3n2)cn1,inactive
11,CCCS(=O)(=O)Nc1ccc(F)c(C(=O)c2c[nH]c3ncc(-c4ccc(Cl)cc4)cc23)c1F,inactive
12,Cc1cccc(-c2[nH]c(C(C)(C)C)nc2-c2ccc3c(c2)OCO3)n1,"inconclusive: 29.8 µM [inhibitor, single point]"
13,Clc1ccc(COC(Cn2ccnc2)c2ccc(Cl)cc2Cl)c(Cl)c1 (stereo not drawn),inactive
14,C=CC(=O)Nc1cccc(Oc2nc(Nc3ccc(N4CCN(C)CC4)cc3OC)ncc2Cl)c1,inactive
15,Nc1nc(=S)c2[nH]cnc2[nH]1,inactive
16,Fc1ccc(CNc2ncnc3ccc(F)cc23)cc1,inactive
17,CC(C)(Sc1ccc(CCN(CCCCC2CCCCC2)C(=O)NC2CCCCC2)cc1)C(=O)O,"inconclusive: 31.6 µM [inhibitor, partial curve, poor fit] and inconclusive: 266 nM [inhibitor, full curve, poor fit] and inactive"
18,COc1cccc2nc(-c3cccs3)nc(NN3C(=O)C=C(C)C3=O)c12,inactive
19,NC(=O)c1cccnc1,"inconclusive: 31.6 µM [inhibitor, partial curve, poor fit]"
20,CN(C)c1nc(N(C)C)nc(N(C)C)n1,"inconclusive: 3.98 µM [inhibitor, partial curve, poor fit]"
21,CCN(CC)Cc1ccc2cc(COC(=O)Nc3ccc(C(=O)NO)cc3)ccc2c1,inactive
22,COc1ccccc1-c1cccc(-c2c(O)c3cc(C#N)c(Cl)cc3[nH]c2=O)c1,inactive
23,COCCCOc1ccnc(CS(=O)c2nc3ccccc3[nH]2)c1C (stereo not drawn),inactive
24,O=C(O)CCNC(=O)c1ccc(N=Nc2ccc(O)c(C(=O)O)c2)cc1,"inconclusive: 31.6 µM [inhibitor, partial curve, poor fit]"
25,CC(C)[C@H](C(=O)Nc1ccc(C(=O)NO)cc1)c1ccccc1,inactive
26,N#Cc1c(NC(=O)c2cccc3ccccc23)sc2c1CCCC2,inactive
27,O=C(O)CCCc1c[nH]c2ccccc12,"inconclusive: 0.0237 µM [inhibitor, full curve, poor fit]"
